# Several values for one entry are separate records, joined by “and”; a condition that tells them apart may be missing. Equal values may be shown once. In all, about 2,000 compounds went through this assay and about 45 (2%) were called active.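 The calls were made as follows: active = inhibition above the mean of all tested compounds plus 3 SD (cut at about 49% in these data); inactive = the rest.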 This is one part of the list.
# Target: Perilipin-5 (Homo sapiens) + 1-acylglycerol-3-phosphate O-acyltransferase ABHD5 (Homo sapiens) (UniProt Q00G26+Q8WTS1)
# Experiment: blockers of ABHD5 binding to perilipin-5 – cell lysate, split luciferase complementation, luminescence, NIH validation set, pilot screen (AID 493035);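 also: 0% = DMSO only wells while the 100% control is not stated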
# Conditions: split G. princeps luciferase complementation, lysates, 4 h; at 7.9 µM, stronger effect = higher value
# UniProt Q00G26, sequence (Q00G26 whole entry, looked up): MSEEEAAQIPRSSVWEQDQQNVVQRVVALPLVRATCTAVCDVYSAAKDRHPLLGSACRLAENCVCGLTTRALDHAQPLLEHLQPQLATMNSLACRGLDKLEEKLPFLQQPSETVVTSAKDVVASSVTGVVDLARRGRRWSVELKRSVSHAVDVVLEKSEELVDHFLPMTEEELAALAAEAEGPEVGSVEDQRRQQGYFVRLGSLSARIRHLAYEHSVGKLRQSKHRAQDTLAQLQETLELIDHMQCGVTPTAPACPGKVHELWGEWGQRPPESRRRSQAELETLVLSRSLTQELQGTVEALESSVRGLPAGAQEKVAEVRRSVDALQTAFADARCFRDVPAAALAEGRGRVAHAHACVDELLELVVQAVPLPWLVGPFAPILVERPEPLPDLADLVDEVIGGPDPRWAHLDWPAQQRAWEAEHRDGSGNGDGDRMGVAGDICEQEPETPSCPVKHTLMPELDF
# UniProt Q00G26, sequence (Q8WTS1 whole entry, looked up): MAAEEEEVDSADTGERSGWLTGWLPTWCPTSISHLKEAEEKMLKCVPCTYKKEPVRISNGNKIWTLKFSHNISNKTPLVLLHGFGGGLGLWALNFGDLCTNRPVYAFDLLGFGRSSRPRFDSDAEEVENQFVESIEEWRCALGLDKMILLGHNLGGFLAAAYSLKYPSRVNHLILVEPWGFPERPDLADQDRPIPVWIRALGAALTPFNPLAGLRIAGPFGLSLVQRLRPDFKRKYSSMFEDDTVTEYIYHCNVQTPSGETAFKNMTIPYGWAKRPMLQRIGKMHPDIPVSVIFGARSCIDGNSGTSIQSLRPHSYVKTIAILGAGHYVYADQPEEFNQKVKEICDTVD
row,SMILES,inhibition
1,C=C(C)C(=O)Nc1ccc(NC(C)C)cc1,inactive: 6.38%
2,C#C[C@]1(O)CC[C@H]2[C@@H]3CCC4=C(CCC(=O)C4)[C@H]3CC[C@@]21C,inactive: 5.58%
3,CC(C)(C)NCC(O)c1cc(O)cc(O)c1 (configuration not stated),inactive: -1.72%
4,COc1ccc(Cc2nc(-c3ccc(Br)cc3)no2)cc1,inactive: -14.7%
5,CCc1oc2ccccc2c1C(=O)c1cc(Br)c(O)c(Br)c1,active: 50.7%
6,NCCCC(N)(C(=O)O)C(F)F (configuration not stated),inactive: -8.38%
7,COc1cc(/C=C(\C#N)C(=O)N2CCc3ccccc32)ccc1O,active: 50.3%
8,Cc1ccccc1C(OCCN(C)C)c1ccccc1 (configuration not stated),inactive: -0.63%
9,CC(=O)SC1CC2=CC(=O)CCC2(C)C2CCC3(C)C(CCC34CCC(=O)O4)C12 (configuration not stated),inactive: 10.8%
10,COC(=O)C1=C(C)NC(C)=C(C(=O)OCCN(C)Cc2ccccc2)C1c1cccc([N+](=O)[O-])c1 (configuration not stated),inactive: -8.85%
11,COc1ccc(-c2nnc(-c3cc4c(ccc5ccccc54)oc3=O)o2)cc1,inactive: 5.2%
12,CC(C)CN1CC(C(=O)O)CC1=O (configuration not stated),inactive: 1.52%
13,CNc1c2c(nn1C)CCCC2,inactive: -4.92%
14,COc1c2ccoc2nc2c(OC)cccc12,inactive: -5.55%
15,CC(C)=CCC(C)(C)/C=N/NC(N)=O,inactive: -11.2%
16,Cc1ccccc1C(=O)Nc1ccccc1C(=O)NCC(C)C,inactive: -5.63%
17,O=C(/C=C/c1ccccc1)/C=C/c1ccccc1,active: 92.3%
18,CC(OC(=O)c1cc(=O)[nH]c2ccccc12)C(=O)c1ccccc1 (configuration not stated),inactive: 1.22%
19,CCc1cc2c(=O)c(-c3nc(C)cs3)c(CCCC(=O)O)oc2cc1O,inactive: -4.5%
20,Cc1cnc(C(=O)NCCc2ccc(S(=O)(=O)NC(=O)NC3CCCCC3)cc2)cn1,inactive: 4.38%
21,CC1(C)C2CCC1(C(=O)O)c1nc3ccccc3nc12 (configuration not stated),inactive: -0.64%
22,Cc1ccc(NCCC(=O)c2ccccc2)cc1Cl,inactive: -0.92%
23,CCSC(SCC)[C@H](O)[C@@H](O)[C@H](O)[C@H](O)CO,inactive: -2.61%
24,O=C(CCSc1ccccc1)N1CCCC1,inactive: -3.3%
25,COc1ccccc1C(CCN(Cc1ccccc1)C(C)=O)c1ccco1 (configuration not stated),inactive: 7.01%

row,SMILES,inhibition
1,COc1ccc2[nH]c(=O)c(CN(C(=O)c3ccco3)C(C)C)cc2c1,inactive: -0.16%
2,CCCCNc1ccc(C(=O)OCCN(C)C)cc1,inactive: 1.98%
3,CC(C)NS(=O)(=O)c1ccc(OCC(=O)Nc2cccc(F)c2)cc1,inactive: -6.57%
4,CCOC(=O)C1(Cc2cccc(Cl)c2)CCCN(C2CCN(C(C)=O)CC2)C1 (configuration not stated),inactive: -1.98%
5,CN(C)CC/C=C1\c2ccccc2COc2ccccc21,inactive: -9.28%
6,COC(=O)c1cc(-c2ccc(C)o2)nc2ccccc12,active: 72.8%
7,CC1(C)c2ccccc2N2CC(=O)NC21/C=C/c1ccco1 (configuration not stated),active: 50.2%
8,CC(C)CCc1noc(CN2CCC(CCN3CCCC3=O)CC2)n1,inactive: -3.52%
9,CCCCC(=O)O[C@]1(C(=O)CO)CC[C@H]2[C@@H]3CCC4=CC(=O)CC[C@]4(C)[C@H]3[C@@H](O)C[C@@]21C,inactive: 0.47%
10,Cc1oc2c(C)c3oc(=O)c4c(c3cc2c1C)CCCC4,inactive: 1.69%
11,CCc1cccc2c3c([nH]c12)C(CC)(CC(=O)O)OCC3 (configuration not stated),inactive: -13.7%
12,CCOC(=O)[C@H](CCc1ccccc1)N[C@@H](C)C(=O)N1CCC[C@H]1C(=O)O,inactive: -7.92%
13,O=C(Nc1ccc(N2CCOCC2)cc1)c1ccc(-c2ccccc2[N+](=O)[O-])o1,inactive: -0.91%
14,C[C@]12CC[C@@H]3c4ccc(O)cc4CC[C@H]3[C@@H]1C[C@@H](O)[C@@H]2O[C@@H]1O[C@H](C(=O)O)[C@@H](O)[C@H](O)[C@H]1O,inactive: 4.44%
15,Cc1ccc2c(c1)C1(C(=O)N2)N2CCCC2C(C(=O)c2ccc3ccccc3c2)C12C(=O)Nc1ccccc12 (configuration not stated),inactive: -3.32%
16,CC(C)=CCC/C(C)=C/CC/C(C)=C/CC/C(C)=C/CC1=C(C)C(=O)c2ccccc2C1=O,inactive: 20.9%
17,CCC(=O)Nc1ccc(C(=O)N2CCN(C(=O)c3ccco3)CC2)cc1,inactive: -5.79%
18,O=C(Nc1ccc(F)c([N+](=O)[O-])c1)c1ccc2c(c1)OCCO2,inactive: -16.1%
19,COC(=O)c1ccc(OCCCCN2CC(C)OC(C)C2)cc1 (configuration not stated),inactive: 0.83%
20,Cc1ccc2c(c1)C1OCCC1C1N2C(=O)C2C(C(=O)O)C3C=CC21O3 (configuration not stated),inactive: -5.66%
21,COc1ccccc1Oc1c(C)oc2c(CN3CCN(CCO)CC3)c(O)ccc2c1=O,inactive: 1.57%
22,COc1ccccc1N=CC1=C(O)CC(c2ccccc2)CC1=O (configuration not stated),inactive: 4.76%
23,CCCC(=O)Nc1ccccc1NC(C)=O,inactive: -8.51%
24,COc1ccc(CNC(=O)c2cc3c(=O)n4ccccc4nc3n(Cc3cccnc3)c2=N)cc1,inactive: 4.08%
25,C[C@]12CCC(=O)C[C@@H]1CC[C@@H]1[C@@H]2CC[C@]2(C)C=CC[C@@H]12,inactive: -10.2%

row,SMILES,inhibition
1,OCCOCCN1CCN(C(c2ccccc2)c2ccc(Cl)cc2)CC1 (configuration not stated),inactive: -4.95%
2,COc1ccc(OC)c(NC2=C(Cl)C(=O)N(Cc3ccccc3)C2=O)c1,inactive: 11%
3,COc1ccc(CNC(=O)C2CCCN2C)cc1OC (configuration not stated),inactive: -1.26%
4,O=C(CN1C(=O)C2CCc3[nH]c4ccccc4c3C2C1=O)N1CCCC1 (configuration not stated),inactive: -2.9%
5,CCOC(=O)c1cc2c(nc1N)CC(C)(CC)OC2 (configuration not stated),inactive: 1.63%
6,Nc1cc(-c2ccncc2)c[nH]c1=O,active: 75.3%
7,Cc1cccc(C2=N/C(=C\c3cccnc3)C(=O)O2)c1,inactive: -14%
8,COc1ccc(C2C(C(=O)c3ccco3)=C(O)C(=O)N2CC2CCCO2)cc1 (configuration not stated),inactive: -0.65%
9,CS(=O)c1ccccc1O (configuration not stated),inactive: 6.47%
10,COC(=O)c1ccc(COc2ccc3c(C)c(C)c(=O)oc3c2C)o1,inactive: 6.94%
11,CC[N+]1(CC)CC2=Cc3ccccc3CC2C1 (configuration not stated),inactive: -2.96%
12,C=C1C2(C(=O)Nc3ccc(SC(F)F)cc3)CCC(C2)C1(C)C (configuration not stated),inactive: 2.97%
13,O=C1OC(=O)C2C1[C@@H]1CC[C@H]2O1 (some centres not stated),inactive: 4.31%
14,CCNC(=O)C(Cc1ccccc1)NC(=O)OCc1ccccc1 (configuration not stated),inactive: -5.97%
15,COc1ccc2c(CCNC(=O)c3ccc([N+](=O)[O-])cc3)c[nH]c2c1,inactive: -25%
16,Cc1cccc(Oc2coc3cc(OC(=O)c4cncc(Br)c4)ccc3c2=O)c1,inactive: 7.68%
17,COc1ccc2c(c1)CC[C@@H]1[C@@H]2CC[C@]2(C)C(=O)CC[C@@H]12,inactive: -11.5%
18,OC(CCN1CCCCC1)(c1ccccc1)C1CCCCC1 (configuration not stated),inactive: -8.85%
19,Cc1ccc2nc3c(cc(C(=O)NCC4CCCO4)c(=N)n3CCCOC(C)C)c(=O)n2c1 (configuration not stated),inactive: 8.06%
20,Cc1coc2c1c(C)cc1oc(=O)c(Cc3ccccc3)c(C)c12,inactive: 0.1%
21,Cc1cc(C)c2c(CCl)cc(=O)oc2c1,inactive: 7.39%
22,COc1cc(C2Nc3ccccc3NC3=C2C(=O)CC(c2ccc(OC)c(OC)c2)C3)ccc1O (configuration not stated),inactive: 1.84%
23,CCOC(=O)C(=Cc1ccccc1OC)C(=O)OCC,active: 47.9%
24,Cc1ccccc1-c1coc2cc(O)ccc2c1=O,inactive: 4.3%
25,COc1ccc(C(=O)Nc2ccc(OC)c([N+](=O)[O-])c2)cc1Br,inactive: 3.5%

row,SMILES,inhibition
1,Fc1ccccc1CNCCC(Cc1ccccc1)c1ccc2c(c1)OCO2 (configuration not stated),inactive: -17.1%
2,CCC1CCc2c(sc(NC(=O)c3cccnc3)c2C(N)=O)C1 (configuration not stated),inactive: -3.42%
3,Cn1c([N+](=O)[O-])cnc1COC(N)=O,inactive: -14.5%
4,COc1cc(C(=O)CCN2CCC(c3ccccc3)C2)cc(OC)c1OC (configuration not stated),inactive: 13.3%
5,CCCCNC(=O)NS(=O)(=O)c1ccc(C)cc1,inactive: -4.64%
6,CC(=O)[C@H]1CC[C@H]2[C@@H]3C[C@H](C)C4=CC(=O)CC[C@]4(C)[C@H]3[C@@H](O)C[C@]12C,inactive: 5.21%
7,CC(C)CC1c2[nH]c3ccccc3c2CCN1C(=O)CCC(=O)N(C)C (configuration not stated),inactive: -11.6%
8,CC(=O)N1c2ccccc2C(C)=CC1(C)C,inactive: -3.26%
9,CCOCc1cc(C)[nH]c(=O)c1C#N,inactive: 5.69%
10,O=C(CCC(=O)c1cccs1)c1cccs1,inactive: -5.93%
11,O=C1c2ccccc2C2(c3ccccc3)NCCN12 (configuration not stated),inactive: 0.12%
12,Cc1nnc(SCC(=O)N2CCCC(C(=O)c3ccc(Cl)cc3)C2)o1 (configuration not stated),inactive: 0.98%
13,CC(=O)Nc1cc(O)cc(O)c1,inactive: -11.9%
14,Cc1ccc(C(=O)NCCNC(=O)c2ccccc2)cc1,inactive: -6.77%
15,CNCCC(Oc1ccc(C(F)(F)F)cc1)c1ccccc1 (configuration not stated),inactive: -11.3%
16,COc1ccc2nc(NC(=O)Nc3ccccc3)sc2c1,inactive: -9.65%
17,COC(=O)c1cc(OC)c(OC)c(OC)c1[N+](=O)[O-],inactive: 7.79%
18,C[C@]12CC[C@@H]3c4cc(O)c(O)cc4CC[C@H]3[C@@H]1CC[C@@H]2O,inactive: 12.8%
19,COc1cccc2c(O)cc(=O)n(C)c12,inactive: -4.25%
20,CCCCOc1cc(C(=O)NCCN(CC)CC)c2ccccc2n1,inactive: -15.8% and inactive: -6.74%
21,COc1cccc(CC2CC(=O)N(c3ccc4c(C)cc(=O)oc4c3)C2=O)c1 (configuration not stated),inactive: -4.81%
22,CCS(=O)(=O)CCn1c([N+](=O)[O-])cnc1C,inactive: -6.22%

# Reference: PubChem BioAssay AID493035 (The Scripps Research Institute Molecular Screening Center, 2011)
